Among all 410,000 compounds or so, about 5,000 (1.2%) were called active. The shares of active, inactive and inconclusive entries below differ from those in the screen. Calls come from the whole dose curve; as a rule, active = well fitted inhibition curve with a large enough effect; inconclusive = small, poorly fitted or top-dose-only effect; inactive = no such curve, though single readings can be large or run the other way. Potencies beside an inconclusive call are fits to weak or partial responses and may not hold up.
test: qHTS for Inhibitors of TGF-b; conditions: HepG2 CAGA-GFP TGF-b/SMAD3 reporter, GFP fluorescence, 18 h, TGF-beta stimulated, 500 pg/mL final; series mostly up to 46.1 µM; activity, negative = inhibition: at the top concentration; note: nearly all actives have a fitted effect of over 65% in size
Procedure, shortened: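 Using HEPG2 CAGA-GFP reporter cells at 1000 cells/well, we pinned test compounds, stimulated with recombinant TGF-beta (500 pg/mL final) and measured total well GFP after 18 h.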
% is set by controls: 0 for no effect and ±100 for the full control effect; potency is the fitted concentration of half-maximal effect; tags give direction and shape of the fitted curve.

Structure (SMILES) | Potency | activity, negative = inhibition
Cc1cc[n+](CCC2CCCCC2)c2ccccc12 | inconclusive: 11.2 µM [inhibitor, partial curve, poor fit] | –
O=c1cc(O)c2ccccc2n1Cc1ccccc1 | inconclusive: 0.282 µM [inhibitor, partial curve, poor fit] | –
COc1cccc(-c2nc3ccccc3s2)c1 | – | inactive: 5.97%
O/N=C(\c1ccc(Cl)cc1Cl)c1ncc(C(F)(F)F)cc1Cl | inconclusive: 35.5 µM [inhibitor, single point] | –
CN1C(C(=O)NCc2ccc(OC(F)(F)F)cc2)CC2Cn3c(nc4ccccc43)C21 (stereo unspecified) | inconclusive: 35.5 µM [inhibitor, partial curve, poor fit] | –
CCOc1ccc(CCNC(=O)C2CCCN(S(=O)(=O)N(C)c3ccc(F)cc3)C2)cc1 (stereo unspecified) | inconclusive: 14.1 µM [inhibitor, single point] | –
O=c1cc(-c2ccccc2)nc(Sc2ccc([N+](=O)[O-])cc2[N+](=O)[O-])[nH]1 | inconclusive: 35.5 µM [inhibitor, single point] | –
Cn1nnnc1SCCNCc1ccccc1OCc1ccc(Cl)cc1 | inconclusive: 15.8 µM [inhibitor, single point] | –
CCOc1ccc(NC(=O)CN(C)C(=O)C2CC2C)cc1OCC (stereo unspecified) | – | inactive: -6.96%
O=C(CNS(=O)(=O)c1ccc(Br)cc1)NCc1ccncc1 | inconclusive: 35.5 µM [inhibitor, single point] | –
CC1(C)CC(=O)C(CC(=O)c2ccccc2)=C(NN=C(N)N)C1 | inconclusive: 35.5 µM [inhibitor, single point] | –
CCOC(=O)/C(=N/Nc1ccccc1)c1csc(Nc2ccccc2)n1 | inconclusive: 28.2 µM [inhibitor, single point] | –
COc1cc(C2C(C#N)=C(N)N(N(C)C)C3=C2C(=O)CCC3)cc(OC)c1OC (stereo unspecified) | – | inactive: 0%
CCC(C)Sc1cccc(-c2nc3ccc(Cl)cn3c2NCc2ccccc2)c1 (stereo unspecified) | inconclusive: 17.8 µM [inhibitor, single point] | –
COc1cccc(-c2sc3ccc(OC)cc3c2-c2ccc(OCCN3CCCC3)cc2)c1 | inconclusive: 14.1 µM [inhibitor, single point] | –
N/C(=C\c1ccccc1)c1ccncc1 | – | inactive: 8.14%
Cn1c(SCC(=O)Nc2cccc(S(=O)(=O)NC3=NCCCCC3)c2)nnc1-c1ccccc1 | inconclusive: 10 µM [inhibitor, partial curve] | –
COc1cc(-c2c(C#N)c(N)nc3c2CCCC3)ccc1O | inconclusive: 6.31 µM [inhibitor, single point] | –
CC[n+]1c(/C=C2\C=C(C)CC(C)(C)C2)sc2ccccc21 | active: 10 µM | –
NC(=O)C1CCN(C(=O)COc2ccc(S(=O)(=O)NC3CCCC3)cc2)CC1 | – | inactive: 0.402%
O=S(=O)(NCCc1ccc(F)cc1)c1cccc2cccnc12 | inconclusive: 35.5 µM [inhibitor, single point] | –
CCC1(c2ccc(F)cc2)NC(=O)N(CC(=O)Nc2ccc(C)c(S(=O)(=O)N3CCOCC3)c2)C1=O (stereo unspecified) | – | inactive: 26.3%

Structure (SMILES) | Potency | activity, negative = inhibition
Nc1nc(NCc2ccco2)nc(N2CCCCCC2)c1[N+](=O)[O-] | inconclusive: 14.1 µM [inhibitor, single point] | –
Cc1cc(C)cc(-n2ccnc2SCC(=O)Nc2ccc3c(c2)OCO3)c1 | – | inactive: -6.65%
CC1=Nc2cccc3cccc(c23)N1 | – | inactive: -5.24%
Cn1cc(-c2cc3n(n2)CCC(=O)N3CCCC(=O)Nc2ccc(F)cc2F)c2ccccc21 | inconclusive: 6.31 µM [inhibitor, partial curve, poor fit] | –
Cc1ccc(NC(=O)CSc2nc3c(oc4ccccc43)c(=O)n2Cc2ccco2)cc1 | – | inactive: 6.36%
CCCn1c(=O)c2sccc2n2c(CCCC(=O)N3CCN(c4cccc(C)c4C)CC3)nnc12 | inconclusive: 0.501 µM [inhibitor, full curve, poor fit] | –
O=C(Nc1ccccc1)C1=C[C@@H](c2coc3ccccc3c2=O)C[C@@H](OCCCCO)O1 | inconclusive: 12.6 µM [inhibitor, single point] | –
Cc1cc(N2CCN(C)CC2)nc2ccc(NC(=S)NCCN3CCc4ccccc4C3)cc12 | inconclusive: 17.8 µM [inhibitor, single point] | –
CC(C(=O)NC1CCCC1)N(C(=O)c1ccc(-c2ccccc2)[nH]1)c1ccccc1F (stereo unspecified) | inconclusive: 35.5 µM [inhibitor, single point] | –
O=C(NC(c1ccc(Cl)cc1)c1cc(Cl)c2cccnc2c1O)c1cccnc1 (stereo unspecified) | inconclusive: 15.8 µM [inhibitor, single point] | –
O=[N+]([O-])c1ccccc1S(=O)(=O)N1CCN(S(=O)(=O)c2ccc3c(c2)OCCO3)CC1 | inconclusive: 35.5 µM [inhibitor, single point] | –
COc1cccc(Oc2nc3ncn(Cc4ccccc4)c3c(=O)n2C)c1 | – | inactive: 0.595%
N#Cc1c(NC(=O)c2ccc(-c3ccccc3[N+](=O)[O-])o2)sc2c1CCCC2 | – | inactive: 5.51%
O=C(NC1CCCCC1)C(c1ccc(F)cc1)N(CCCN1CCOCC1)C(=O)c1ccc(CN2CCOCC2)o1 (stereo unspecified) | inconclusive: 12.6 µM [inhibitor, single point] | –
CCc1ccc(Sc2cc(C(=O)NCCCOC(C)C)c3ccccc3n2)cc1 | inconclusive: 17.8 µM [inhibitor, single point] | –
Cc1ccccc1-n1ncc2c(SCC(=O)NC3CCCC3)ncnc21 | inconclusive: 35.5 µM [inhibitor, single point] | –
O=C(CSc1n[nH]c(-c2cccs2)n1)N1CCN(S(=O)(=O)c2ccc3ccccc3c2)CC1 | inconclusive: 35.5 µM [inhibitor, single point] | –
Cc1cc(C)cc(OCC(=O)Nc2ccc(Cl)c(-c3nc4ncccc4o3)c2)c1 | inconclusive: 8.91 µM [inhibitor, partial curve, poor fit] | –
CCCc1cc(C(=O)N2CCN(S(=O)(=O)c3ccc(OC)c(OC)c3)CC2)cs1 | inconclusive: 17.8 µM [inhibitor, single point] | –
COc1ccc(OC)c(S(=O)(=O)Nc2cc(Cl)cc(Cl)c2)c1 | active: 7.94 µM | –
COc1ccc(-c2csc(NC(CO)c3nc4ccccc4n3Cc3ccc(C)cc3)n2)cc1 (stereo unspecified) | inconclusive: 35.5 µM [inhibitor, single point] | –
COc1ccc(OC)c(Nc2cc(C)nc3ccccc23)c1 | inconclusive: 35.5 µM [inhibitor, single point] | –

Structure (SMILES) | Potency | activity, negative = inhibition
OCC1(Cc2ccccc2)CCN(CCCC2CCCC2)CC1 | inconclusive: 3.55 µM [inhibitor, single point] | –
Cn1cnc(S(=O)(=O)N2CCC(C(=O)N3CCN(c4ccc(Cl)cc4)CC3)CC2)c1 | – | inactive: 0.204%
COC(=O)c1sccc1NC(=O)CC1C(=O)NCCN1C(=O)Nc1ccc(C(F)(F)F)cc1 (stereo unspecified) | inconclusive: 14.1 µM [inhibitor, single point] | –
COc1ccccc1N(CC(=O)NC(C)(C)C)C(=O)C1CSC(=O)C1 (stereo unspecified) | inconclusive: 5.01 µM [inhibitor, single point] | –
O=C(COC(=O)C12CC3CC(CC(C3)C1)C2)NNC(=O)c1ccccc1 | inconclusive: 35.5 µM [inhibitor, single point] | –
CCCC(C(=O)Nc1ccc(S(=O)(=O)N2CCCC2)cc1)c1ccccc1 (stereo unspecified) | inconclusive: 12.6 µM [inhibitor, single point] | –
Cc1cc(C(=O)Nc2ccc3ccccc3c2)c(C)o1 | – | inactive: -13.6%
O=C(N/N=C/c1ccc(O)c([N+](=O)[O-])c1)C(O)(c1ccccc1)c1ccccc1 | – | inactive: 6.19%
COc1cc([N+](=O)[O-])ccc1NC(=O)COC(=O)c1c[nH]c(=O)[nH]c1=O | – | inactive: -16.6%
CCOc1ccc(NS(=O)(=O)c2cc(NC(=O)CCC(=O)c3cccs3)ccc2Cl)cc1 | inconclusive: 35.5 µM [inhibitor, single point] | –
CCN(CCCn1c(=S)[nH]c2ccc(N3CCOCC3)cc2c1=O)c1ccccc1 | inconclusive: 25.1 µM [inhibitor, single point] | –
CCN1C(c2ccc(F)cc2)=CS/C1=C(\C#N)c1nnc2n1-c1ccccc1SC2 | inconclusive: 10 µM [inhibitor, partial curve] | –
Cc1nc(-c2cccc(F)c2)sc1CCNC(=O)c1ccc(F)c(F)c1 | inconclusive: 35.5 µM [inhibitor, single point] | –
CCCCCCCCCCCCCCCC(O)C[N+](C)(C)CCO (stereo unspecified) | inconclusive: 35.5 µM [inhibitor, single point] | –
CCCNC(=O)OCC12CC3CC(CC(C3)C1)C2 | inconclusive: 20 µM [inhibitor, single point] | –
COc1ccc(/C=N/Nc2cc(C)nc(N3CCOCC3)n2)cc1 | – | inactive: 0%
Cc1ccc(CNC(=O)CN2C(=O)C3(SCC(=O)N3c3cc(C)cc(C)c3)c3ccccc32)cc1 (stereo unspecified) | – | inactive: -18.5%
Cn1ncc2c(Nc3cccc(Cl)c3)nc(Nc3cccc(Cl)c3)nc21 | inconclusive: 35.5 µM [inhibitor, single point] | –
Cc1cccc(CC2S/C(=N/c3ccccn3)NC2=O)c1 (stereo unspecified) | – | inactive: -2.11%
COc1ccc(-c2cc(C(=O)Nc3ccccc3O)c3ccccc3n2)cc1 | inconclusive: 15.8 µM [inhibitor, single point] | –
S=c1[nH]nc(C2CC2c2ccc(Cl)cc2)n1-c1ccc(Cl)cc1 (stereo unspecified) | inconclusive: 35.5 µM [inhibitor, single point] | –
COc1ccc(CN(CCC(C)C)S(=O)(=O)c2ccccc2Br)c(OC)c1 | inconclusive: 8.91 µM [inhibitor, partial curve, poor fit] | –

Source: PubChem BioAssay AID588855 (National Center for Advancing Translational Sciences (NCATS), 2011)
